Hit rate of the full screen: of about 310,000 compounds, about 14,000 (4.5%) showed an effect of 50% or more. The effect is printed as a negative number. Some of the results follow.
Target: human ether-à-go-go-related gene (hERG) potassium channel (human, UniProt Q12809)
Assay: primary screen, population patch clamp on CHO cells stably expressing hERG
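Also: peak tail current of the secondary pulse compared with the same well before compound.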

human ether-à-go-go-related gene (hERG) potassium channel, sequence (Q12809 whole entry, looked up): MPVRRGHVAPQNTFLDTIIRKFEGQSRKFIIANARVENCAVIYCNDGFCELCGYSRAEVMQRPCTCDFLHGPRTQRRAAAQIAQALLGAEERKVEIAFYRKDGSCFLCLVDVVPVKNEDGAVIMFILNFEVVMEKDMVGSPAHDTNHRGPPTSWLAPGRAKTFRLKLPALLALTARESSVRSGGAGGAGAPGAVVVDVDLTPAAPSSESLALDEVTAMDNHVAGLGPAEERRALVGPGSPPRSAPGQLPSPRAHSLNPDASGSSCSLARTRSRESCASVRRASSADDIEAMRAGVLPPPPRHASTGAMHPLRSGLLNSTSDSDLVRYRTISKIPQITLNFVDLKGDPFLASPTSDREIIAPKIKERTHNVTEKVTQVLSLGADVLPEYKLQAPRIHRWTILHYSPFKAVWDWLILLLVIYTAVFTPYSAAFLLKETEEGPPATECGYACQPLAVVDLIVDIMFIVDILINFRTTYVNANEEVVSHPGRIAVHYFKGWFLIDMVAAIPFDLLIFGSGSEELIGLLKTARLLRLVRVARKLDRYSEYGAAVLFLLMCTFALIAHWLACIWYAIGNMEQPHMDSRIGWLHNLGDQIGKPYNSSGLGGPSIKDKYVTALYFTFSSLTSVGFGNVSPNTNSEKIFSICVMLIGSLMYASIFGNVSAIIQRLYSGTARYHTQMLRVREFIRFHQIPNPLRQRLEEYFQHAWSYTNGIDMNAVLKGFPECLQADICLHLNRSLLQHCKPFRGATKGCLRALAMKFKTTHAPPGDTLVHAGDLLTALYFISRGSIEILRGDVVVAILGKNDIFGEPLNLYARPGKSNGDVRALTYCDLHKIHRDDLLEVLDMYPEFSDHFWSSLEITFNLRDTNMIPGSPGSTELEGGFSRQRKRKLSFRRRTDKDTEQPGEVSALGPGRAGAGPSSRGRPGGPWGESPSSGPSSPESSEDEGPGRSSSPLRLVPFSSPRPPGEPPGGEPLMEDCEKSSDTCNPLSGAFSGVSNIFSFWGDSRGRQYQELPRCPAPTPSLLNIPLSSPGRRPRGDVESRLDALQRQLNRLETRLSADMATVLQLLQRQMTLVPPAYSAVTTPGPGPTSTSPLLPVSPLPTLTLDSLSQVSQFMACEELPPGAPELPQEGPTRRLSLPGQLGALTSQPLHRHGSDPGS

Row | SMILES | hERG current change (%, negative = inhibition) at 10uM [%]
1 | COc1ccc(OC)c(C(=O)c2oc3ccccc3c2NC(C)=O)c1 | -20
2 | COc1cc(/C=C2/SC(=S)N(Cc3ccccc3)C2=O)cc(Cl)c1O | 23.5
3 | COCc1ccc(C(=O)OC(C)C(=O)Nc2c(C)n(C)n(-c3ccccc3)c2=O)cc1 (stereo not shown) | 9.09
4 | Clc1cccc(CSc2nccn2-c2ccccc2)c1 | -8.01
5 | CCN1C(=O)/C(=C\N(C)C)S/C1=N\S(=O)(=O)c1ccccc1 | -2.12
6 | COc1ccc(-c2noc(CN(C)C(=O)c3ccoc3C)n2)cc1OC | -0.132
7 | CCCSc1nnc2[nH]c(=O)cc(N)n12 | 13.6
8 | Cc1ccc(S(=O)(=O)NN2C(=O)/C(=C/c3cccs3)SC2=S)cc1 | -22
9 | COc1cccc(CN2CCC(n3nccc3NC(=O)CCOc3ccccc3)CC2)c1 | -62
10 | Cc1cccc2cc(-c3nc4ccc(C(=O)O)cc4[nH]3)c(=O)oc12 | 13.2
11 | O=C(O)C1CCC(c2ccc(-c3ccccc3)cc2)CC1 (stereo not shown) | -28.2
12 | CC12CC3(C)CC(C)(C1)CC(C(=O)NC(=S)N1CCOCC1)(C2)C3 | -9.18
13 | CCCCn1c(SCC(=O)c2ccc3c(c2)OCCO3)nnc1-c1ccco1 | -14
14 | CCOC(=O)Cn1c(C(=O)OCC)cc2sccc21 | 15
15 | O=C(CCCCCN1C(=O)c2cccc3cccc(c23)C1=O)NCCCO | -1.71
16 | Cc1cc(C(=O)NNCc2ccccc2)no1 | -3.87
17 | Cc1ccc(S(=O)(=O)N2CCCCC2)cc1NC(=O)CNc1ccc(C(F)(F)F)cc1 | 3.45
18 | Cc1ccc(C)c(NC(=O)CSc2nnc(CNC(=O)c3cccs3)o2)c1 | -9.36
19 | CN(C(=O)CC1C(=O)NCCN1Cc1ccc(F)c(F)c1)C1CCOCC1 (stereo not shown) | 8.25
20 | O=C(CCC(=O)N1CCN(Cc2ccccc2)CC1)Nc1nnc(C2CCCCC2)s1 | -9.04
21 | CSc1ccccc1OCc1cc(C(=O)NCCn2ccnc2C)no1 | -31.3
22 | CCOC(=O)C1=C(c2ccccc2)NC(=O)NC1c1ccc(O)c(OCC)c1 (stereo not shown) | 15.6
23 | CN(C)c1ccc(/C=C/C(=O)c2ccc(C(C)(C)C)cc2)cc1[N+](=O)[O-] | 2.55

Row | SMILES | hERG current change (%, negative = inhibition) at 10uM [%]
24 | O=C(O)[C@@H]1CCCN1S(=O)(=O)c1cccc2cccnc12 | -1.77
25 | O=C(Oc1ccc(C(=S)N2CCC(O)CC2)cc1)c1ccc(Cl)cc1 | -11.8
26 | COCCn1c(SCC(=O)N2CCC(C)CC2)nc2ccccc2c1=O | -62.8
27 | CC1=C(C(=O)O)N2C(=O)C(NC(=O)c3nn(C)c(C)c3Cl)C2SC1 (stereo not shown) | 10.9
28 | O=C(NCC1(c2ccccc2)CCCC1)c1ccccc1 | 2.4
29 | CCOC(=O)CC(=O)N/N=C/c1c(N)n(C)c(=O)n(C)c1=O | -32.3
30 | COc1ccc(S(=O)(=O)Nc2cccc(-c3ccc(N4CCCCCC4)nn3)c2)c(OC)c1 | 18.7
31 | Cc1ccc(C(=O)OCC(=O)Nc2ncc(C(F)(F)F)cc2Cl)cc1NC(=O)c1ccco1 | -50.1
32 | CCOC(=O)CCCCC(=O)NC(CO)C(=O)NC (stereo not shown) | 4.65
33 | CN(C)C(CNC(=O)c1ccc(C(=O)c2ccccc2)cc1)c1ccccc1 (stereo not shown) | -25.8
34 | CCN1CCN(C(=O)Cc2coc3cc(C)cc(C)c23)CC1 | -18
35 | O=C(COC(=O)CCCSc1nc2ccccc2[nH]1)Nc1ccc(Cl)cc1 | -23.5
36 | O=C(/C=C/c1c[nH]c2ccccc12)c1c(O)n(CCc2ccccc2)c(=O)[nH]c1=O | 7.22
37 | CCN(CC(=O)Nc1ccc(OC)cc1)C(=O)COc1cccc2c1OC(C)(C)C2 | -14.1
38 | COc1cc(NC(=O)CSc2nc3ccccc3cc2C)c(C(=O)O)cc1OC | 8.57
39 | CCCc1cc(C(=O)NCC(C)C)no1 | 0.36
40 | COc1ccc(OC)c(-c2nn(-c3ccccc3)cc2C(=O)NCC2CCCO2)c1 (stereo not shown) | 2.13
41 | O=CN1c2ccccc2CSc2ccccc21 | 25.1
42 | COc1ccc(CCNC(=O)C2CCCN(C(=O)N(C)C)C2)c(OC)c1 (stereo not shown) | 8.16
43 | Cn1c(SCC(=O)c2ccc3c(c2)OCO3)nnc1-c1ccccn1 | 13.2
44 | Cc1cc(N2CCN(C(=O)c3ccco3)CC2)n2ncc(-c3ccccc3)c2n1 | -50.5
45 | Cn1cnnc1SCC(=O)Nc1nc(-c2ccc(F)cc2)cs1 | 13
46 | Cc1cccc(NC(=O)c2ccc3c(c2)CCN3S(C)(=O)=O)c1 | 8.76

Row | SMILES | hERG current change (%, negative = inhibition) at 10uM [%]
47 | COc1ccc(CNC(=O)CN2C(=O)C(c3ccccc3)Oc3cccnc32)cc1 (stereo not shown) | -11
48 | CCN(CC)C(=O)Cn1c(=O)n(-c2ccccc2)c(=O)c2sccc21 | 9.94
49 | CCc1cc2cc(C(=O)Nc3ccccc3F)sc2s1 | -0.577
50 | CCc1nn(CCCC(=O)N2CCc3ccccc3C2)c(=O)c2cc3occc3n12 | -29
51 | CCN(CC)CCCNC(=O)Cn1cc2c(n1)CCC(C)C2 (stereo not shown) | 2.88
52 | Cc1ccc(-n2nnc(-c3cccnc3)n2)cc1 | 6.05
53 | CC1=C(C(=O)OC(C)C)C(c2cccs2)N2C(=O)CCSC2=N1 (stereo not shown) | -11.5
54 | O=C(NCCN1CCCCC1)c1ccc(F)cc1Cl | 9.65
55 | COc1ccc(N2CCN(C(=O)COC(=O)Cc3ccc(F)cc3)CC2)cc1 | -20
56 | OC(c1ccccn1)C1CCN(Cc2nc(C(c3ccccc3)c3ccccc3)no2)CC1 (stereo not shown) | -9.22
57 | CCOC(=O)C(C(=O)OCC)=C1OC(=O)c2ccccc21 | 3.02
58 | COC(=O)c1cc(Br)ccc1NC(=O)Nc1ccc(C)cc1 | 7.58
59 | OCCC1CN(Cc2cc3ccccc3o2)CCN1Cc1ccc(F)cc1 (stereo not shown) | -11.8
60 | CCOC(=O)Nc1sc(=S)n(C)c1C | -1.04
61 | O=C(COc1ccc(S(=O)(=O)N2CCOCC2)cc1)N1CCOCC1 | 10.6
62 | CCc1cc2c(=O)c(-c3cscn3)coc2cc1O | 5.58
63 | O=C(CCS(=O)(=O)c1ccccc1)NCc1ccccc1 | -4.29
64 | c1ccc(CNc2cnccn2)cc1 | -0.449
65 | O=C(CSc1nc(-c2cccs2)cc(C(F)(F)F)n1)NCc1ccccc1 | -22.5
66 | COc1ccc(/C=N/NC(=O)c2cnccn2)cc1O | -0.205
67 | CCC1CCCCN1S(=O)(=O)c1ccc2c(c1)CCN2C(=O)C1CCC1 (stereo not shown) | -6.68
68 | COCCNCC(=O)Nc1ccc(OC(F)(F)F)cc1.Cl | -33.9
69 | CCN(CC(=O)NCc1ccc(F)cc1)Cc1cc(=O)n2ccsc2n1 | -6.04

Row | SMILES | hERG current change (%, negative = inhibition) at 10uM [%]
70 | CC(NC(=O)c1ccccc1Br)c1nnc(SCC(=O)NC2=NCCS2)n1C (stereo not shown) | 12.6
71 | CCCCCCn1c(N)c(C#N)c2ccc([N+](=O)[O-])cc2c1=O | 17.9
72 | COc1cccc(/C=C2\CCCCC2=O)c1 | 9.62
73 | O=C(CN1C(=O)c2ccccc2C1=O)Nc1ccccc1C(=O)NC1CCCCCC1 | -4.23
74 | O=C(Nc1ccc(N2CCCC2)cc1)C(c1ccccc1)c1ccccc1 | 11.2
75 | CC(=O)Nc1ccc(S(=O)(=O)N(C)S(=O)(=O)c2ccc(F)cc2)cc1 | -63.3
76 | COc1ccc(OC)c(S(=O)(=O)N2C(C)CCCC2C)c1 (stereo not shown) | -7.42
77 | COc1cccc(NC(=O)CN(C)C(=O)Cn2c(=O)oc3ccccc32)c1 | 9.04
78 | CCOC(=O)C1C(=O)NC(c2ccccc2)=NC1c1ccc(O)c(OC)c1 (stereo not shown) | 9.11
79 | Cc1ccc(C)c(NC(=O)c2ncn[nH]2)c1 | 2.63
80 | Cc1ccc2cc(C#N)c(N3CCCC3)nc2c1C | 7.87
81 | O=C(C1CCC(=O)N1Cc1ccc(F)cc1)N1CCC2(CC1)OCCO2 (stereo not shown) | 13.8
82 | CCC(C)NC(=O)C(=O)NCC1CCCN1CC (stereo not shown) | 6.68
83 | O=[N+]([O-])c1ccccc1N/N=C/c1cc2ccccc2nc1Cl | 14.8
84 | Cc1ccc(-c2cc(C(=O)Nc3cccnc3)c3ccccc3n2)o1 | -8.27
85 | C=CCn1c(Oc2ccc(C(=O)OC)cc2)nc2c1c(=O)n(C)c(=O)n2C | 7.4
86 | OCCNCCc1c[nH]c2ccc(OCc3ccccc3)cc12 | -7.1
87 | CC(C)(C)c1cc(Br)c(O)c(N=Nc2ccc(S(=O)(=O)N3CCOCC3)cc2)c1 | 6.46
88 | Cc1cc(C)c(S(=O)(=O)NCCn2ccc3ccccc32)c(C)c1 | 9.34
89 | Cc1ccnc2ccc(-c3nc4ccccc4o3)cc12 | 1.44
90 | CC12CCC(C(=O)N3CCC(Cc4ccccc4)CC3)(C(=O)C1=O)C2(C)C (stereo not shown) | -4.1
91 | COc1ccc(-c2[nH]ncc2/C=N\NC(=O)c2ccc(Br)o2)cc1OC | 3.74

Source: PMC4336329 (PLoS ONE, 2015)
